From paper PMC10668032 come the findings set out here.

The list shows a part of the results. At the low end of the ranking the order means little.

For this test, the target named is SIX1 homeodomain (reference allele) (UniProt Q15475). The test is described as follows: universal protein binding microarray. The settings on record: Universal all-10-mer PBM (8x60K, AMADID 030236), 300 nM GST-tagged protein, Alexa Fluor 488 anti-GST; buffer, salt, pH and temperature not stated; high values mean tight binding; most listed sequences are background and not binding sites; double strand, one strand shown.
Take AATTCATA: the binding signal is -0.0467 E-score.

Consider TCCAAGAA, for which the binding signal was -0.0352 E-score.

Consider GTTTCATA, for which the binding signal amounted to 0.0335 E-score.

For the sequence AGTATGGG, the binding signal stood at 0.0403 E-score.

With CGCTTGTC, the binding signal was -0.117 E-score.

As to CGATGGCA, the binding signal was -0.036 E-score.

ATCGGTTG: the binding signal is 0.238 E-score.

Regarding ATCCTGGG, the binding signal amounted to 0.235 E-score.

Turning to CTCATTCC, the binding signal was found to be 0.0252 E-score.

For the sequence GCATTTAA, the binding signal was -0.281 E-score.

In the case of GTTGACTA, the binding signal is -0.158 E-score.

On to CGTCAGTC, for which the binding signal was -0.228 E-score.

In the case of CCAGGTAC, the binding signal worked out at 0.0467 E-score.

CTGCTTTA: the binding signal was -0.224 E-score.

As to CGAATACG, the binding signal worked out at 0.2 E-score.

With CGCGGACC, the binding signal is -0.193 E-score.

As for CAATTTCC, the binding signal is -0.143 E-score.

Consider AAATTAGT, for which the binding signal was -0.203 E-score.

As to TCTTAGAA, the binding signal is -0.0363 E-score.

ATAGTTGG: the binding signal was -0.0335 E-score.

Regarding ACAGCCTG, the binding signal was -0.176 E-score.

For the sequence ACAGCAAA, the binding signal was -0.133 E-score.

Consider ACTAGACT, for which the binding signal was -0.081 E-score.

With ATAGAAGA, the binding signal is -0.121 E-score.

Regarding AGCACCAT, the binding signal is -0.0721 E-score.

As for CGAGGGGC, the binding signal is -0.123 E-score.

On to CTCAAGTC, for which the binding signal was -0.142 E-score.

In the case of ACTACATG, the binding signal was -0.00953 E-score.

For ACAGCTTC, the binding signal is -0.166 E-score.

As for CATAGTTA, the binding signal is -0.0519 E-score.

Regarding ATAGATAG, the binding signal came out at 0.167 E-score.

As for GCGTTACA, the binding signal was -0.0302 E-score.

Turning to CGGTTTTA, the binding signal was -0.022 E-score.

As to ACCACTGC, the binding signal is -0.0458 E-score.

Take CCACAGGC: the binding signal is -0.0147 E-score.

For the sequence CTTGGAGA, the binding signal was -0.00193 E-score.

Turning to CCACGTGC, the binding signal is -0.0599 E-score.

Take GTAACAAC: the binding signal was -0.26 E-score.

With AATCTGGA, the binding signal worked out at 0.0634 E-score.

In the case of CAGAAACC, the binding signal turned out to be 0.0324 E-score.

TGGAGGAA: the binding signal is -0.0637 E-score.

Consider CCTGGCGA, for which the binding signal was -0.0144 E-score.

In the case of AATAACGT, the binding signal is -0.127 E-score.

As for ACTACATC, the binding signal was -0.0118 E-score.

Regarding CCCAGCGC, the binding signal was -0.102 E-score.

Take AACTCCGT: the binding signal was -0.12 E-score.

Turning to GAGTAGCC, the binding signal was -0.0944 E-score.

For the sequence GAAATGTC, the binding signal was -0.144 E-score.

Take CGGATAGA: the binding signal came to 0.355 E-score.

Regarding AACGAAAA, the binding signal was -0.211 E-score.

Take GTACAGCA: the binding signal was -0.146 E-score.

Regarding TCTGAACA, the binding signal came to 0.129 E-score.

With GCAAAGCC, the binding signal was -0.245 E-score.

For the sequence AGCGTTTC, the binding signal is -0.262 E-score.

As for CGGTAAGC, the binding signal is -0.065 E-score.

For the sequence GACGATGC, the binding signal was -0.111 E-score.

For the sequence CCACGTAC, the binding signal was -0.1 E-score.

As to AATTTTGA, the binding signal was -0.105 E-score.

Consider AAGTGTAA, for which the binding signal was -0.0758 E-score.

Consider ATACTTTG, for which the binding signal is 0.253 E-score.

As to CGAGATAA, the binding signal turned out to be 0.0897 E-score.

As for ATAAATAC, the binding signal was 0.163 E-score.

On to GATAGACA, for which the binding signal was found to be 0.135 E-score.

As for CCCGGGCA, the binding signal was determined as 0.143 E-score.

As to ACCCGGGG, the binding signal was 0.094 E-score.

In the case of AATTAACT, the binding signal is -0.29 E-score.

For AGTAAGTC, the binding signal is -0.117 E-score.

As to ACATTACA, the binding signal was -0.0935 E-score.

Turning to AGTGTCAG, the binding signal was determined as 0.115 E-score.

With CTATTGAG, the binding signal worked out at 0.121 E-score.

For the sequence TCAACCGA, the binding signal was determined as 0.149 E-score.

For the sequence CAGCGGAC, the binding signal was -0.198 E-score.

Take ATTTCGTC: the binding signal stood at 0.0288 E-score.

As for AGATGTCG, the binding signal was -0.0943 E-score.

ACAATTCT: the binding signal was -0.249 E-score.

For GAATAGTA, the binding signal was determined as 0.113 E-score.

In the case of CAACAACA, the binding signal was 0.0126 E-score.

On to AGTAATCG, for which the binding signal is -0.0635 E-score.

Consider GTACGCGA, for which the binding signal is -0.117 E-score.

Regarding ACTTGGGA, the binding signal is -0.165 E-score.

As for CGTCTCTC, the binding signal came to 0.0464 E-score.

As for AGGGACCA, the binding signal is -0.156 E-score.

As to ATTCTTAG, the binding signal was -0.0225 E-score.

GATAAAAC: the binding signal worked out at 0.164 E-score.

In the case of AGGTTACC, the binding signal is -0.164 E-score.

For the sequence GAAACTTC, the binding signal is -0.369 E-score.

Regarding AACCCGCA, the binding signal was -0.021 E-score.

For the sequence ATCACTAG, the binding signal came to 0.262 E-score.

As for CGGTGCGC, the binding signal was -0.0469 E-score.

For ATAAGATA, the binding signal came out at 0.28 E-score.

ACTTCGAC: the binding signal is -0.151 E-score.

ACGGACAC: the binding signal is 0.0901 E-score.

On to CACGCAAA, for which the binding signal was -0.0111 E-score.

CATTGACC: the binding signal was -0.0678 E-score.

CGAGCAGC: the binding signal worked out at 0.00537 E-score.

Turning to ATTTTATC, the binding signal is 0.0655 E-score.

ATCTGGGC: the binding signal stood at 0.24 E-score.

For the sequence ACGTTAAT, the binding signal was -0.0578 E-score.

On to ATTACTAG, for which the binding signal was -0.107 E-score.

Take ATACGTAC: the binding signal came to 0.336 E-score.

Turning to ATTAGTGA, the binding signal is 0.152 E-score.

Consider ATTCTAAC, for which the binding signal was -0.00892 E-score.

For the sequence GCACAGGC, the binding signal was -0.0625 E-score.

As for AGGGGGCG, the binding signal is -0.0452 E-score.

Turning to GAGACATC, the binding signal amounted to 0.0479 E-score.

ATGACTTG: the binding signal was -0.245 E-score.

With ATGCCTTA, the binding signal was 0.0223 E-score.

As to TAGGGAAA, the binding signal was -0.114 E-score.

On to AAGCTCAT, for which the binding signal was -0.0834 E-score.

In the case of CGAAAATA, the binding signal was 0.143 E-score.
